From ChEMBL document CHEMBL4888484, “Replenishing the malaria drug discovery pipeline: Screening and hit evaluation of the MMV Hit Generation Library 1 (HGL1) against asexual blood stage Plasmodium falciparum ,using a nano luciferase reporter read-out” (2022)
Screen size: about 150,000 compounds; about 540 (0.36%) showed an effect of 50% or more. The list shows a part of the results.

These compounds were tested on Plasmodium falciparum (assay: Primary screen in NF54 nanoGlo assay, in single point, at 2uM, 72h; a lower Z score goes with more inhibition). Conditions: timepoint 72 hour.
Type: functional, Erythrocyte

Structure (SMILES) | % Inhibition [%] | Z score
CCS(=O)(=O)N1CCCc2cc(C(=O)N3CCOCC3)ccc21 | 15 | -1.71
COc1cncc(C(NC(=O)c2sccc2N)[C@H]2C[C@H](O)C2)c1 (stereo not given in full) | -1 | 0.13
CC(=O)Nc1cc(Cl)c(Cl)cc1N | 0 | -0.05
COc1ccc(C2C(C(=O)O)c3ccccc3C(=O)N2C2CCCCC2)cc1 (stereo not given) | 36 | -4.59
COCCc1cccc(-c2ccns2)c1 | -5 | 0.73
c1cc(-n2cnnn2)ccc1NCc1nnc(C2CC2)o1 | -7 | 1.22
C[C@H](NC(=O)OC(C)(C)C)c1ccc(C(=O)O)cc1 | -5 | 0.97
Cc1nc[nH]c1CN(C)CCC[C@H]1CCCO1 | -1 | 0.21
CC(C)CC(=O)N1CCC2(CC1)N[C@@H](Cc1ccccc1)C(=O)N2CCc1ccccn1 | -13 | 1.76
Cc1ccc(C(=O)NC2(CN3CCOCC3)CCCC2)n1C | -3 | 0.63
CN1C(=O)[C@@H](c2ccccc2)CC12CCN(C(=O)c1cccc(O)c1)CC2 | 6 | -0.96
Cc1cc(CNC(=O)N2CC[C@H](Cc3ccncc3)C2)ccc1F | -2 | 0.39
Cn1c(CN2CCO[C@H](C(N)=O)C2)cc2ccccc21 | -16 | 1.97
c1ccc2oc(N3CCOC[C@H](Oc4cnccn4)C3)nc2c1 | 11 | -1.29
Cc1cccc(CC(=O)N(CCC#N)C2CCOCC2)c1 | 1 | -0.14
O=C(C(Cc1ccccc1)N1C(=O)C2C3CCC(C3)C2C1=O)N1CCOCC1 (stereo not given) | 6 | -0.67
CN(Cc1cccnc1)Cc1cccc2nonc12 | -4 | 0.49
CC(C)(C)OC(=O)N1CCOc2ccc(NC(=O)Cn3ncn4nccc4c3=O)cc2C1 | -2 | 0.35
CC1=NNC(=O)C1CCNC(=O)c1ccc(OC2CC2(F)F)cc1 (stereo not given) | 7 | -0.89
O=c1ccn(Cc2cc(Cl)cc3c2OCOC3)c2ccsc12 | -6 | 0.6
CC1(C)C[C@@H]2C[C@@](C)(CN2C(=O)Nc2cccnc2O)C1 | -8 | 1.47
O=C(NCc1nccn1CCCc1ccccc1)[C@@H]1COCCO1 | 30 | -3.04

Structure (SMILES) | % Inhibition [%] | Z score
Cc1nc([C@@H]2CCCN2S(=O)(=O)CCC2CCCCC2)[nH]c1C | -16 | 2.98
Cc1cc2n(n1)CCCN(C(=O)c1cc(=O)[nH]c3ccccc13)C2 | -7 | 1.23
O=C1c2ccccc2C(=O)N1Cc1nc(-c2cccnc2)no1 | -9 | 1.34
CCOC(=O)CC1(S(=O)(=O)c2ccc(F)cc2)CCN(C[C@H]2CCOC2)CC1 | 1 | -0.23
C/C=C(\C)CN1CC[C@H](CNC(=O)c2ccc3c(c2)OCCO3)C1 | -8 | 1.61
CC(C)c1noc(N2CCC[C@H](CN(C)S(C)(=O)=O)C2)n1 | 0 | -0.04
NC(=O)[C@@H]1CCCN1C(=O)CC1CS(=O)(=O)c2ccccc2O1 (stereo not given in full) | -4 | 0.83
Cn1ccc2ccc(NCC(=O)N3CCOCC3)cc2c1=O | 2 | -0.25
COc1cccc(C(=O)NCC2=CCN([C@@H]3C=CCCC3)CC2)c1 | -15 | 2.19
CN1CCc2ncnc(N3CCN(c4nccs4)CC3)c2C1 | -7 | 1.06
Cc1ccc(C)c(N2CCN(S(=O)(=O)c3cc(C(=O)N4CCCCCC4)cs3)CC2)c1 | -7 | 1.2
Cc1cnc(-c2ccc(C(C)(C)C)cc2)nc1N | -1 | 0.11
CO[C@H]1CN(C)C[C@@H]1NS(=O)(=O)c1cc(C)sc1C | -2 | 0.19
COCCN1CCC[C@@]2(CCN(Cc3c(F)cccc3Cl)C2)C1 | -9 | 1.07
CN=C(NCc1ccccn1)N[C@@H](C)CCc1ccccc1 | -4 | 0.37
Cc1cc(Cl)ccc1CNC[C@]1(O)CCS(=O)(=O)C1 | -5 | 1.04
O=C(C[C@H](c1c[nH]c2ccccc12)C1CCCCC1)NCCN1CCOCC1 | -13 | 2.39
O=C(NOCc1ccccc1)N1CCN(Cc2ccncc2)CC1 | -10 | 2.07
Cc1cc(C)cc(NC(=O)Nc2cc3c(cc2N2CCCC2)n(C)c(=O)n3C)c1 | 0 | -0.04
C=CCN(C)C(=O)NCc1ccc(Br)c(F)c1 | 2 | -0.18
O=C(NCC1(c2cccs2)CCCCC1)c1snc(O)c1Cl | -14 | 2.04
O=C1NCCCc2[nH]c(-c3nc(-c4ccccc4)cs3)nc21 | -14 | 1.37

Structure (SMILES) | % Inhibition [%] | Z score
O=C(NCc1nnc2n1CC[C@H](C(F)(F)F)C2)c1cc(Cl)sc1Cl | -18 | 2.26
Cc1ocnc1C(=O)N1CCC[C@@]2(CCC(=O)N(CCc3c[nH]cn3)C2)C1 | 2 | -0.25
CC(C)c1cc(C(=O)NCc2snnc2C(C)C)nc(N)n1 | -16 | 1.8
Cn1nc([C@@H]2CCCCN2S(=O)(=O)c2ccc(F)cc2)c2c1CCOC2 | -13 | 1.28
CNC(=O)c1nn[nH]c1NS(=O)(=O)c1ccc(C)cc1C | -14 | 1.94
COc1ccc(-c2nc(C)c(C(=O)N(C)c3cn[nH]c3)s2)cc1OC | -1 | 0.21
COCc1ncc(C)n1CC1CN(C(=O)CCc2ccccc2)C1 | -10 | 1.37
CCc1[nH]ncc1C(=O)N1CC(Cc2ccc(F)c(F)c2)C1 | -26 | 2.64
N#Cc1ccc(O)c(NC(=O)c2[nH]nc3c2CCCC3)c1 | -10 | 1.44
Clc1cccc(N2CCN(Cn3nccc3-c3cccnc3)CC2)c1 | 1 | -0.12
CC(C)(O)CN1CCN(C(=O)CCCc2ccccn2)CC1 | -8 | 1.22
CCn1cnnc1CNS(=O)(=O)C1CC1c1cccc(F)c1 (stereo not given) | -2 | 0.18
COc1cc(C(=O)O)ccc1NC(=O)[C@H]1CC1(C)C | -14 | 1.46
CCOc1ccc(-c2[nH]c3c(c2-c2ccc(OC)cc2)c(=O)n(C)c(=O)n3C)cc1 | 5 | -0.72
CC(C)(C)OC(=O)NC1CCC(=O)CC1 | -7 | 0.98
FC(F)(F)c1ccccc1CNc1ccc2c(c1)OCO2 | -8 | 1.52
CN1CCCN(c2cnn(Cc3ccc4ccccc4n3)c(=O)c2)CC1 | -6 | 0.81
O=C(NCc1ccccn1)Nc1ccn(-c2ccccc2)n1 | 1 | -0.17
Cc1c(CN[C@@H](CC(C)C)C(=O)OC(C)(C)C)cc(C#N)n1C | -7 | 0.61
C[C@H](OC(=O)COC(C)(C)C)c1ccccn1 | -5 | 0.42
CN(C)C(=O)C1CCN(C(=O)Nc2nnc(CC3CCCC3)s2)CC1 | -3 | 0.52
CCN(CC(=O)c1c[nH]c(C(=O)N2CCCC2)c1)Cc1ccco1 | -14 | 1.27

Structure (SMILES) | % Inhibition [%] | Z score
Cc1ccc(C(=O)N[C@@H](CC(C)C)c2nnc3ccccn23)c(-n2cnnn2)c1C | -4 | 0.52
Cc1cc(C(=O)N2CC(Oc3ccccc3-c3nc(-c4cnccn4)no3)C2)nn1C | -22 | 2.51
Cc1ccc(C)c(-n2cnc3cc(C(=O)N4C5COCC4C5)ccc32)c1 | -3 | 0.43
Cc1nc(NC2CCC(NC(=O)C3CCCC3)CC2)c2cnn(-c3cccc(Cl)c3)c2n1 (stereo not given) | 4 | -0.41
N#Cc1ccccc1-c1nc2cc3[nH]c(=O)[nH]c3cc2[nH]1 | 4 | -0.79
Cn1c(=O)c2c(c(-c3ccccc3)cn2C)n(CC(=O)NC2CCCC2)c1=O | -7 | 1.02
CC(C)Cn1ncnc1CN[C@H]1CCc2c(O)cccc21 | -5 | 0.55
Cc1sc(NC(=O)COCC(=O)O)c(C(=O)NCc2cccnc2)c1-c1ccccc1 | 2 | -0.33
Cc1cc(C(=O)NC2CCC(O)CC2)c(C)n1-c1ccc2c(c1)OCCO2 (stereo not given) | -3 | 0.47
CC(C)(O)CCN1CCO[C@H](c2noc(-c3ccccc3)n2)C1 | -6 | 0.79
Cc1nc[nH]c1CN1C[C@H]2CC[C@@H](C1)N(C(=O)CCC(=O)c1ccccc1)C2 | -6 | 0.91
NC(=O)c1ccc(N2CCC(c3nc(C(F)(F)F)cs3)CC2)nn1 | -11 | 1.35
Cc1ccc(C(=O)N/C(=N/c2cc(C)cc(C)c2)N2CCN(Cc3ccccc3F)CC2)cc1 | -1 | 0.24
Cc1nn(C)c(C)c1C1OCCC1CNCc1cnn2ccccc12 (stereo not given) | -4 | 0.63
O=C(CCn1cnccc1=O)N1CCCC12CCCCC2 | -15 | 2
O=C1[C@H](Cc2ccccc2)NC2(CCN(S(=O)(=O)c3cccc4cccnc34)CC2)N1CCc1ccccn1 | -17 | 1.51
C=CC(C)(CC)C(=O)N1CCN(CCOCC)C(C)C1 (stereo not given) | -3 | 0.37
Cc1cc(N2C(=O)N(C)C(C)(C)C2=O)nn1C(C)C | -8 | 1.46
CCC(C)(C)c1cn(CCN2CC3CCC(C2)O3)nn1 | 6 | -0.78
